# Measured values from the supplement of paper PMC8728848.
# Some of the results follow.
# B1: FimA-N1 (Actinomyces oris) (protein)
# chain: MHHHHHHSSGVDLGTENLYFQSNATETPNYGNIKTDATGSLVIHKHLTGGGKDIGTPTGTAQNADDKGPAVEGVVFTAYPITDINLKDPAGWDTISNLSRTGVPDSACANPAAPTLGAHQFGTPKVSPATTKEGLATITEMPVQAYLVCETTTPGDIVQKAKPFVVTIPHPNTAAGADGQWIYDVNVYPKNEAIDVDKTIQAQK
# Columns and labels:
# Assay in all cases: glycan array binding signal (z-score within array); higher = stronger binding
# Settings in all cases: glycan notation: IUPAC condensed, linker removed
# [1] = molecular target: Fuc(a1-2)Gal6S(b1-3)GlcNAc6S
# Summary of the method: (§1)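 Arrays were curated from the Consortium for Functional Glycomics database, 3228 in total, and kept only where the protein sequence was available. Binding is expressed as a within-array Z-score. This score was averaged across arrays of the same protein sequence at different concentrations or buffers and across linkers, and negative values can be read as non-binding.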
# Fuc(a1-2)Gal6S(b1-4)Glc = molecular target: Fuc(a1-2)Gal6S(b1-4)Glc
# Summary of the method: as §1
# [2] = molecular target: Fuc(a1-2)Gal6S(b1-4)Glc6S
# Summary of the method: as §1
# Fuc(a1-2)[Gal(a1-3)]Gal = molecular target: Fuc(a1-2)[Gal(a1-3)]Gal
# Summary of the method: as §1
# [3] = molecular target: Fuc(a1-2)[Gal(a1-3)]Gal(b1-3)GalNAc
# Summary of the method: as §1
# [4] = molecular target: Fuc(a1-2)[Gal(a1-3)]Gal(b1-3)GalNAc(b1-3)Gal(a1-4)Gal(b1-4)Glc
# Summary of the method: as §1
# [5] = molecular target: Fuc(a1-2)[Gal(a1-3)]Gal(b1-3)GlcNAc
# Summary of the method: as §1
# [6] = molecular target: Fuc(a1-2)[Gal(a1-3)]Gal(b1-3)GlcNAc(b1-2)Man(a1-3)[Fuc(a1-2)[Gal(a1-3)]Gal(b1-3)GlcNAc(b1-2)Man(a1-6)]Man(b1-4)GlcNAc(b1-4)GlcNAc
# Summary of the method: as §1
# [7] = molecular target: Fuc(a1-2)[Gal(a1-3)]Gal(b1-3)GlcNAc(b1-2)Man(a1-3)[Fuc(a1-2)[Gal(a1-3)]Gal(b1-3)GlcNAc(b1-2)Man(a1-6)]Man(b1-4)GlcNAc(b1-4)[Fuc(a1-6)]GlcNAc
# Summary of the method: as §1
# [8] = molecular target: Fuc(a1-2)[Gal(a1-3)]Gal(b1-3)GlcNAc(b1-3)GalNAc
# Summary of the method: as §1
# [9] = molecular target: Fuc(a1-2)[Gal(a1-3)]Gal(b1-3)GlcNAc(b1-6)GalNAc
# Summary of the method: as §1
# [10] = molecular target: Fuc(a1-2)[Gal(a1-3)]Gal(b1-4)Glc
# Summary of the method: as §1
# [11] = molecular target: Fuc(a1-2)[Gal(a1-3)]Gal(b1-4)GlcNAc
# Summary of the method: as §1
# [12] = molecular target: Fuc(a1-2)[Gal(a1-3)]Gal(b1-4)GlcNAc(b1-2)Man
# Summary of the method: as §1
# [13] = molecular target: Fuc(a1-2)[Gal(a1-3)]Gal(b1-4)GlcNAc(b1-2)Man(a1-3)[Fuc(a1-2)[Gal(a1-3)]Gal(b1-4)GlcNAc(b1-2)Man(a1-6)]Man(b1-4)GlcNAc(b1-4)GlcNAc
# Summary of the method: as §1
# [14] = molecular target: Fuc(a1-2)[Gal(a1-3)]Gal(b1-4)GlcNAc(b1-2)Man(a1-3)[Fuc(a1-2)[Gal(a1-3)]Gal(b1-4)GlcNAc(b1-2)Man(a1-6)]Man(b1-4)GlcNAc(b1-4)[Fuc(a1-6)]GlcNAc
# Summary of the method: as §1
# [15] = molecular target: Fuc(a1-2)[Gal(a1-3)]Gal(b1-4)GlcNAc(b1-3)GalNAc
# Summary of the method: as §1
# [16] = molecular target: Fuc(a1-2)[Gal(a1-3)]Gal(b1-4)GlcNAc(b1-3)[Fuc(a1-2)[Gal(a1-3)]Gal(b1-4)GlcNAc(b1-6)]GalNAc
# Summary of the method: as §1
# [17] = molecular target: Fuc(a1-2)[Gal(a1-3)]Gal(b1-4)GlcNAc(b1-6)GalNAc
# Summary of the method: as §1
# [18] = molecular target: Fuc(a1-2)[Gal(a1-3)]Gal(b1-4)[Fuc(a1-3)]Glc
# Summary of the method: as §1
# [19] = molecular target: Fuc(a1-2)[Gal(a1-3)]Gal(b1-4)[Fuc(a1-3)]GlcNAc
# Summary of the method: as §1
# [20] = molecular target: Fuc(a1-2)[Gal(a1-3)]Gal(b1-4)[Fuc(a1-3)]GlcNAc(b1-3)GalNAc
# Summary of the method: as §1
# [21] = molecular target: Fuc(a1-2)[Gal(a1-4)]Gal(b1-4)GlcNAc
# Summary of the method: as §1
# [22] = molecular target: Fuc(a1-2)[GalNAc(a1-3)]Gal
# Summary of the method: as §1
# [23] = molecular target: Fuc(a1-2)[GalNAc(a1-3)]Gal(b1-3)GalNAc(a1-3)[Fuc(a1-2)]Gal(b1-4)GlcNAc
# Summary of the method: as §1
# [24] = molecular target: Fuc(a1-2)[GalNAc(a1-3)]Gal(b1-3)GalNAc(b1-3)Gal(a1-4)Gal(b1-4)Glc
# Summary of the method: as §1
# [25] = molecular target: Fuc(a1-2)[GalNAc(a1-3)]Gal(b1-3)GlcNAc
# Summary of the method: as §1
# [26] = molecular target: Fuc(a1-2)[GalNAc(a1-3)]Gal(b1-3)GlcNAc(b1-2)Man(a1-3)[Fuc(a1-2)[GalNAc(a1-3)]Gal(b1-3)GlcNAc(b1-2)Man(a1-6)]Man(b1-4)GlcNAc(b1-4)GlcNAc
# Summary of the method: as §1
# [27] = molecular target: Fuc(a1-2)[GalNAc(a1-3)]Gal(b1-3)GlcNAc(b1-2)Man(a1-3)[Fuc(a1-2)[GalNAc(a1-3)]Gal(b1-3)GlcNAc(b1-2)Man(a1-6)]Man(b1-4)GlcNAc(b1-4)[Fuc(a1-6)]GlcNAc
# Summary of the method: as §1
# [28] = molecular target: Fuc(a1-2)[GalNAc(a1-3)]Gal(b1-3)GlcNAc(b1-3)GalNAc
# Summary of the method: as §1
# [29] = molecular target: Fuc(a1-2)[GalNAc(a1-3)]Gal(b1-3)GlcNAc(b1-6)GalNAc
# Summary of the method: as §1
# [30] = molecular target: Fuc(a1-2)[GalNAc(a1-3)]Gal(b1-4)Glc
# Summary of the method: as §1
# [31] = molecular target: Fuc(a1-2)[GalNAc(a1-3)]Gal(b1-4)GlcNAc
# Summary of the method: as §1
# [32] = molecular target: Fuc(a1-2)[GalNAc(a1-3)]Gal(b1-4)GlcNAc(b1-2)Man
# Summary of the method: as §1
# [33] = molecular target: Fuc(a1-2)[GalNAc(a1-3)]Gal(b1-4)GlcNAc(b1-2)Man(a1-3)[Fuc(a1-2)[GalNAc(a1-3)]Gal(b1-4)GlcNAc(b1-2)Man(a1-6)]Man(b1-4)GlcNAc(b1-4)GlcNAc
# Summary of the method: as §1
# [34] = molecular target: Fuc(a1-2)[GalNAc(a1-3)]Gal(b1-4)GlcNAc(b1-2)Man(a1-3)[Fuc(a1-2)[GalNAc(a1-3)]Gal(b1-4)GlcNAc(b1-2)Man(a1-6)]Man(b1-4)GlcNAc(b1-4)[Fuc(a1-6)]GlcNAc
# Summary of the method: as §1
# [35] = molecular target: Fuc(a1-2)[GalNAc(a1-3)]Gal(b1-4)GlcNAc(b1-3)Gal(b1-4)GlcNAc
# Summary of the method: as §1
# [36] = molecular target: Fuc(a1-2)[GalNAc(a1-3)]Gal(b1-4)GlcNAc(b1-3)Gal(b1-4)GlcNAc(b1-3)Gal(b1-4)GlcNAc
# Summary of the method: as §1
# [37] = molecular target: Fuc(a1-2)[GalNAc(a1-3)]Gal(b1-4)GlcNAc(b1-3)GalNAc
# Summary of the method: as §1
# [38] = molecular target: Fuc(a1-2)[GalNAc(a1-3)]Gal(b1-4)GlcNAc(b1-3)[Fuc(a1-2)[GalNAc(a1-3)]Gal(b1-4)GlcNAc(b1-6)]GalNAc
# Summary of the method: as §1
# [39] = molecular target: Fuc(a1-2)[GalNAc(a1-3)]Gal(b1-4)GlcNAc(b1-6)GalNAc
# Summary of the method: as §1
# [40] = molecular target: Fuc(a1-2)[GalNAc(a1-3)]Gal(b1-4)[Fuc(a1-3)]GlcNAc
# Summary of the method: as §1
# [41] = molecular target: Fuc(a1-2)[GalNAc(a1-3)]Gal(b1-4)[Fuc(a1-3)]GlcNAc(b1-3)GalNAc
# Summary of the method: as §1
# [42] = molecular target: Fuc(a1-2)[GalNAc(a1-4)]Gal(b1-4)GlcNAc
# Summary of the method: as §1
# [43] = molecular target: Fuc(a1-2)[GalNAc(b1-3)]Gal
# Summary of the method: as §1
binder,measurement,setting,value
B1,glycan array binding signal (z-score),[1],-0.124
same,glycan array binding signal (z-score),Fuc(a1-2)Gal6S(b1-4)Glc,-0.338
same,glycan array binding signal (z-score),[2],0.072
same,glycan array binding signal (z-score),Fuc(a1-2)[Gal(a1-3)]Gal,0.245
same,glycan array binding signal (z-score),[3],-0.371
same,glycan array binding signal (z-score),[4],0.011
same,glycan array binding signal (z-score),[5],1.81
same,glycan array binding signal (z-score),[6],0.124
same,glycan array binding signal (z-score),[7],-0.179
same,glycan array binding signal (z-score),[8],-0.183
same,glycan array binding signal (z-score),[9],0.418
same,glycan array binding signal (z-score),[10],-0.323
same,glycan array binding signal (z-score),[11],-0.143
same,glycan array binding signal (z-score),[12],-0.282
same,glycan array binding signal (z-score),[13],-0.32
same,glycan array binding signal (z-score),[14],0.004
same,glycan array binding signal (z-score),[15],-0.094
same,glycan array binding signal (z-score),[16],-0.259
same,glycan array binding signal (z-score),[17],-0.219
same,glycan array binding signal (z-score),[18],-0.347
same,glycan array binding signal (z-score),[19],-0.008
same,glycan array binding signal (z-score),[20],-0.379
same,glycan array binding signal (z-score),[21],-0.094
same,glycan array binding signal (z-score),[22],-0.184
same,glycan array binding signal (z-score),[23],-0.184
same,glycan array binding signal (z-score),[24],-0.132
same,glycan array binding signal (z-score),[25],-0.281
same,glycan array binding signal (z-score),[26],-0.408
same,glycan array binding signal (z-score),[27],-0.344
same,glycan array binding signal (z-score),[28],-0.262
same,glycan array binding signal (z-score),[29],-0.324
same,glycan array binding signal (z-score),[30],-0.095
same,glycan array binding signal (z-score),[31],-0.453
same,glycan array binding signal (z-score),[32],-0.269
same,glycan array binding signal (z-score),[33],-0.201
same,glycan array binding signal (z-score),[34],-0.321
same,glycan array binding signal (z-score),[35],-0.232
same,glycan array binding signal (z-score),[36],-0.23
same,glycan array binding signal (z-score),[37],-0.41
same,glycan array binding signal (z-score),[38],-0.224
same,glycan array binding signal (z-score),[39],-0.162
same,glycan array binding signal (z-score),[40],0.129
same,glycan array binding signal (z-score),[41],0.011
same,glycan array binding signal (z-score),[42],0.103
same,glycan array binding signal (z-score),[43],1.69
